Laboratory results taken from PubChem BioAssay AID1508624 (National Center for Advancing Translational Sciences (NCATS), 2021).
The campaign covered roughly 48,000 compounds. About 120 (0.25%) were called active. Inconclusive results (about 4%) are left out. Calls come from the whole dose curve; as a rule, active = well fitted activation curve with a large enough effect; inconclusive = small, poorly fitted or top-dose-only effect, or another doubt; inactive = no such curve, though single readings can be large or run the other way. The list shows a part of the results.

Assay: Primary qHTS for Identification of Small Molecule Activators of Huntingtin-Antisense Promoter Activity; note: nearly all actives have a fitted effect of over 55% in size
Settings: HEK293 HTT-AS promoter firefly luciferase reporter (activity 0% = vehicle and -100% = no light), 24 h; series mostly up to 57.5 µM; activity change, positive = activation: at the top concentration
How it was run: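 HEK293 Fluc reporter, 2,500 cells/well, 24 h pre-culture; cpds up to 57.5 uM final, 24 h 37 degrees C; Dual-Glo, 10 min RT; normalized vehicle = 0%, zero RLU = -100%.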

Compound	activity change, positive = activation
Cc1ccc(S(=O)(=O)N2CCCc3cc(NC(=O)c4c(F)cccc4F)ccc32)cc1	inactive: -18%
Cc1nn(CC(=O)NCc2ccccc2Br)c(=O)c2cc3occc3n12	inactive: 0.475%
CCc1ccc(C2=C(C)C(N3CCC(C(=O)NCc4ccc(C)o4)CC3)=NS2(=O)=O)cc1	inactive: -9.83%
CCCCNC(=O)[C@@H](c1ccccc1)N1Cc2ccccc2C1=O	inactive: -5.67%
Cc1ccc(Cl)cc1-n1ncc2c(N3CCC(C(N)=O)CC3)ncnc21	inactive: -23.1%
Cc1cccc(OCCCCn2c(C3CC(=O)N(c4ccc(C)cc4C)C3)nc3ccccc32)c1 (stereo not drawn)	inactive: -59.1%
O=C(CCn1c(=O)c2cccn2c2cccnc21)N1CCN(c2ccc(Cl)cc2)CC1	inactive: -13.9%
CNc1oc(/C=C/c2cc(OC)c(OC)c(OC)c2)nc1C#N	inactive: 3.06%
CCOc1ccccc1NC(=O)CSc1nccn1Cc1ccc(F)cc1	inactive: -16.3%
O=C(OCC1CCCO1)c1ccc2c(c1)N(Cc1ccccc1F)C(=O)c1ccccc1S2(=O)=O (stereo not drawn)	inactive: -8.72%
Cc1ccccc1C(=O)Nc1ccc(C(=O)OCc2cc(=O)n3c4c(sc3n2)CCCC4)cc1	inactive: -37%
Cc1ccc(-n2c(=O)c3ccc(C(=O)NCc4ccccc4Cl)cc3n(CC(N)=O)c2=O)cc1	inactive: -53.1%
Cc1ccc(C(=O)Nc2ccc(F)cc2)cc1S(=O)(=O)N1CCOCC1	inactive: 4.12%
Cc1cccc(CNC(=O)c2cnc3sc(N4CCOCC4)nn3c2=O)c1	inactive: -4.89%
Cc1cccc(C)c1Nc1c(-c2ccccc2O)nc2ncccn12	inactive: -28.6%
Cc1ccccc1CNC(=O)c1ccc2c(c1)N(Cc1ccccc1)CCS2	inactive: -20.3%
CCCCCCCCCCCCCCCCCC(=O)O	inactive: 1.95%
O=C(CCCn1c(=O)c2cccn2c2cccnc21)Nc1ccccc1Br	inactive: -9.59%
O=c1oc2ccc3ccccc3c2cc1-c1nnc(Nc2cccc(F)c2)s1	inactive: 16.3%
CCN1CCOC(=O)C1CC(=O)Nc1cc(Cl)ccc1OC (stereo not drawn)	inactive: -20%
CCCCn1c(=O)c2oc3ccccc3c2n(CC(=O)Nc2ccccc2OC)c1=O	inactive: -10.9%
CCOC(=O)c1c(NC(=O)/C=C/c2ccc(OCC)cc2)sc2c1CCC2	inactive: -4.01%
Cc1ccc(CNC(=O)Cn2cc(C(=O)c3ccc(Cl)cc3)c(=O)c3ccc(C)nc32)cc1	inactive: -7.86%
COc1cc(OC)c(NC(=O)NCCn2nnc3cc(S(=O)(=O)N(C)C)ccc32)cc1Cl	inactive: -3.61%
COc1ccc(-c2nn3c(=O)cc(CN4CCN(C(=O)Nc5cc(C)ccc5C)CC4)nc3s2)cc1	inactive: -9.8%

Compound	activity change, positive = activation
CCCCSCCCNC(=O)C1CCN(Cc2nc(-c3ccc(CC)cc3)oc2C)CC1	inactive: -1.18%
Cc1cccc(N2CCN(C(=O)c3sc4nc5n(c(=O)c4c3C)CCC5)CC2C)c1 (stereo not drawn)	inactive: -12.8%
CCOc1ccc(CCNC(=O)C(CC)n2nc(C)c3c(C)n(-c4ccccc4)nc3c2=O)cc1 (stereo not drawn)	inactive: -14.5%
CCCCNc1ccc(C(=O)OCCN(CC)CC)cc1	inactive: -5.51%
CCOC(=O)c1c(C)[nH]c(C)c1S(=O)(=O)N1CCC(C(=O)NCc2ccc(F)cc2)CC1	inactive: -14.7%
Cc1cc(-c2ccc(S(=O)(=O)Nc3cccc(C)c3C)s2)on1	inactive: -36.1%
COc1ccc(-c2c(C#N)c(SCC(=O)Nc3ccc(C)c(C)c3)nc(C)c2C(=O)Nc2ccc(Cl)cc2)cc1	inactive: -11.2%
O=C(CSc1nnc(-c2ccccc2Br)n1-c1ccccc1)c1ccc(F)cc1	inactive: -29.1%
Cc1nc2ccn(Cc3cccnc3)c(=O)c2cc1C(=O)NCc1ccccc1	inactive: -20.6%
O=C(NC1CCCC1)c1ccc(CSc2nc3cccnc3n2Cc2cccc(F)c2)cc1	inactive: -22%
O=c1[nH]c(SCc2ccccc2)nc2c1CCCC2	inactive: 1.18%
CC(C)(C)C1CCc2nc(NC(=O)c3cccc(Cl)c3)sc2C1 (stereo not drawn)	inactive: -75.7%
COC(=O)c1ccc(OCC2c3cc(OC)c(OC)cc3CCN2C(=O)c2ccc(OC)cc2)cc1 (stereo not drawn)	inactive: -24.5%
Cc1oc(-c2ccccc2Cl)nc1CS(=O)CC(=O)N1CCN(c2cccc(C(F)(F)F)c2)CC1 (stereo not drawn)	inactive: -38.2%
Cn1nnnc1SCCCNCc1cc(Br)ccc1OCc1ccccc1	inactive: -18.6%
Cc1nc2sccn2c(=O)c1S(=O)(=O)Nc1ccc(N2CCN(C)CC2)cc1	inactive: -0.426%
COc1cc2c(cc1OC)-c1cc(=Nc3c(C)cc(C)cc3C)n(C)c(=O)n1CC2	inactive: -20.6%
CCCOc1cccc(C(=O)Nc2cc(-c3nc4ccccc4[nH]3)ccc2C)c1	inactive: -8.2%
CCCc1cnc2c(c1SCc1cccc(C)c1)c(=O)n(C)c(=O)n2C	inactive: -28.1%
COc1cc(OC)c(NC(=O)c2sc3nc4n(c(=O)c3c2C)CCCC4)cc1Cl	inactive: 1.89%
COc1ccc(S(=O)(=O)NCCc2sc(C)nc2C)cc1	inactive: -33.6%
COc1ccc(-n2c(-c3ccccc3F)nc3c(cnn3-c3ccc(C)cc3)c2=O)cc1	inactive: -42%
CCOc1cc(Cn2c(-c3ccc(O)c(OCC)c3)nc3ccccc32)ccc1O	inactive: -13.8%
O=C(CC1C(=O)OCCN1Cc1ccccc1)Nc1cccc(Cl)c1 (stereo not drawn)	inactive: -34.1%
Cc1cc(C)cc(NC(=O)c2nnn(Cc3cccc(Br)c3)c2N)c1	inactive: -29.8%

Compound	activity change, positive = activation
CCCCC(=O)N1CC(=O)Nc2ccc(F)cc2C1c1ccc(F)cc1 (stereo not drawn)	inactive: 1.6%
CCn1c(CNC(=O)C23CC4CC(CC(C4)C2)C3)nnc1SCC(=O)Nc1ccc(C)cc1	inactive: -26.7%
Cc1nc2c3cccnc3nn2c(C)c1CCC(=O)NCc1ccccc1Cl	inactive: -9.41%
Cc1ccc(S(=O)Cc2ccc(C(=O)NCc3ccc(OC(C)C)cc3)o2)cc1 (stereo not drawn)	inactive: -21.1%
CCOc1ccccc1NC(=O)CSc1nc2ccccc2nc1Cc1ccc(C)cc1	inactive: -31.3%
Cc1ccc2c(Sc3ccccc3)c(C(=O)NCc3ccccc3F)[nH]c2c1	inactive: 8.86%
CC(=O)c1ccc(NC(=O)c2sc(-n3nc(C)c(CCC(C)C)c3C)nc2C)cc1	inactive: 9.27%
CCOC(=O)[C@H](CCc1ccccc1)N[C@H]1CCc2ccccc2N(CC(=O)O)C1=O	inactive
COc1cc(OC)c(NC(=O)Cc2c(C(=O)O)c(C)cn2C)cc1Cl	inactive: -16.7%
COc1ccc(NC(=O)C2=C(C)Nc3ncnn3C2c2sccc2C)cc1 (stereo not drawn)	inactive: -10.8%
CC(=O)N1CCCC1c1nc2ccccc2n1Cc1c(F)cccc1Cl (stereo not drawn)	inactive: -11.9%
CCc1ccc(OCC(=O)Nc2ccc(S(=O)(=O)Nc3onc(C)c3C)cc2)cc1	inactive: -14.2%
COc1ccc(OC2CCN(S(=O)(=O)c3cccc(F)c3)CC2)cc1	inactive: -33.2%
Cc1ccc2oc(=O)n(CCNC(=O)Nc3ccccc3C)c2c1	inactive: -9.11%
Cc1ccc(CNC(=O)Cc2c(C(=O)O)c(C)cn2C)cc1	inactive: -6.14%
CCCCn1c(=O)c2oc3ccccc3c2n(CC(=O)Nc2cc(C)ccc2C)c1=O	inactive: -8.3%
COc1ccc(C(=O)CSc2nc3cc(C(=O)NC4CCCC4)ccc3c(=O)n2CC2CCCO2)cc1 (stereo not drawn)	inactive: 3.13%
Cc1ccccc1NC(=O)Nc1csc2c1CCCC2	inactive: 4.34%
CCOc1ccc(CN2C(=O)c3ccccc3Sc3ccc(C(=O)NCc4ccc5c(c4)OCO5)cc32)cc1	inactive: -16.6%
COc1ccc(C)cc1NC(=O)C(NS(=O)(=O)c1cccs1)c1ccccc1 (stereo not drawn)	inactive: -17.5%
Cc1cccc(C(=O)N2CCNC(=O)C2CC(=O)Nc2ccc(F)cc2)c1 (stereo not drawn)	inactive: 0.299%
Cc1cccc(NC(=O)Cn2c(=O)n(CCc3ccccc3)c(=O)c3ccccc32)c1	inactive: -8.98%
COc1ccc(C2C(C(=O)Nc3ccccc3)=C(C)Nc3nc(-c4ccccc4)nn32)c(OC)c1 (stereo not drawn)	inactive: -24.6%
CCOC(=O)c1c(C)oc2nc(C)nc(Nc3cc(C)cc(C)c3)c12	inactive: -9.11%
CC(=O)N1CCCc2cc(S(=O)(=O)N(CCN(C)C)Cc3ccccc3)ccc21	inactive: -6.75%

Compound	activity change, positive = activation
CCc1ccc2oc(C(=O)NCC(c3ccc(Cl)cc3)N3CCOCC3)c(C)c2c1 (stereo not drawn)	inactive: -20.8%
CCc1cccc(C)c1NC(=O)c1cc(S(=O)(=O)N(C)Cc2ccccc2)ccc1F	inactive: -46.1%
Cc1ccc(-n2ncc3c(N4CCCCC4)ncnc32)cc1Cl	inactive: -84%
O=C(CSc1nc2ccccc2n1Cc1ccc(F)cc1)N1CCN(c2ccc(F)cc2)CC1	inactive: -6.84%
Cc1csc2nc(COC(=O)c3ccc(F)cc3)cc(=O)n12	inactive: -18.8%
CC(=O)Nc1ccc(NC(=O)CCc2c(C)nc3c(c(C)nn3-c3ccc(C)cc3)c2C)cc1	inactive: -6.21%
CC(=O)Nc1ccccc1-c1nc2ccccc2n(C(C)C(=O)Nc2cc(Cl)ccc2C)c1=O (stereo not drawn)	inactive: -7.03%
CCN(CC)S(=O)(=O)c1nnc(NC(=O)COc2ccc(C)cc2)s1	inactive: -24.7%
Cc1ccc(C)c(NC(=O)CSc2nnc(CNC(=O)c3ccccc3)n2-c2ccccc2)c1	inactive: -15.4%
CCOc1ccc(NC(=O)c2ccc(CN3C(=O)C(C)=C(c4ccc(C)cc4)S3(=O)=O)cc2)cc1	inactive: -12.3%
CCC(=O)Nc1ccccc1-c1nc2ccccc2n(Cc2cccc(Br)c2)c1=O	inactive: -13.7%
Cn1c(=O)c2sccc2n2c(CCCC(=O)Nc3ccc(Cl)cc3)nnc12	inactive: -5.56%
CC(C)n1c(/C=C/[C@@H](O)C[C@@H](O)CC(=O)O)c(-c2ccc(F)cc2)c2ccccc21	inactive: -7.55%
O=C(Nc1ccccc1Cl)c1ccc(F)c(S(=O)(=O)NCc2ccc(Cl)c(Cl)c2)c1	inactive: -34.5%
CCOC(=O)c1sc(N2C(=O)c3oc4cc(C)c(C)cc4c(=O)c3C2c2ccc(C)cc2)nc1C (stereo not drawn)	inactive: -18.8%
COc1ccc(CN2CCCN(CC(=O)Nc3cc(C)ccc3C)S2(=O)=O)cc1	inactive: -15.9%
CCOC(=O)Cn1c(C2CC(=O)N(c3ccc(C)cc3)C2)nc2ccccc21 (stereo not drawn)	inactive: -16.5%
CCC(=O)N1c2ccccc2CC1C(=O)NCCc1ccc(SC)cc1 (stereo not drawn)	inactive: -6.8%
COCCn1c(-c2ccccc2)c(C)n2c3c(=O)n(C)c(=O)n(C)c3nc12	inactive: -22.2%
Cc1ccccc1OCCn1cc(C(=O)C2CCCCC2)c2ccccc21	inactive: -5.96%
Cc1ccc(C)c(N2CCN(C(=O)Cn3cnc4sc(C)c(S(=O)(=O)N5CCN(c6ncccn6)CC5)c4c3=O)CC2)c1	inactive: -25.7%
CCNC(=O)N1CCN(CCCC(c2ccc(F)cc2)c2ccc(F)cc2)CC1	inactive: -23%
O=[N+]([O-])c1ccc(C(c2sc3nc(-c4ccco4)nn3c2O)N2CCN(Cc3ccccc3)CC2)cc1 (stereo not drawn)	inactive: -8.28%
